“And” between values parts separate entries of the source, which are not always exact repeats. Identical values can stand only once. Screen size: about 420,000 compounds; about 64,000 (15%) were called active. Inconclusive means that the source gave no clear call. Such entries were picked first, then a sample of the others. Calls follow the shape of the dose curve; as a rule, active = well fitted inhibition curve with a large enough effect; inconclusive = small, poorly fitted or top-dose-only effect; inactive = flat fitted curve, though single readings scatter. No potency is given beside an inconclusive call; the fits are too rough.
Assay: qHTS for Inhibitors of human tyrosyl-DNA phosphodiesterase 1 (TDP1): qHTS in cells in absence of CPT; also: nearly all actives have a fitted effect of over 55% in size
Conditions: DT40 Tdp1-/- hTDP1 cells, no CPT, ATP luminescence, 48 h; activity change, negative = growth inhibition: at 46.2 µM (top of the series) unless noted
How it was run: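 No-CPT arm: Tdp1-/-;hTDP1 DT40 cells (400/well) plus compounds, incubated ≥48 hr at 37 °C. Readout CellTiter-Glo luminescence.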
% is scaled to controls: 0 for no effect and ±100 for the full control effect; potency is read from the fitted curve at half-maximal effect; tags tell the direction and shape of the fitted curve.

SMILES | Potency | activity change, negative = growth inhibition
Cc1cc(N2CCCC(C(=O)Nc3cccc4ccccc34)C2)n2ncnc2n1 (stereo unspecified) | inconclusive [inhibitor, single point] | 
Cc1ccc2c(c1)C(=O)N1[C@H]3c4ccccc4OC[C@@H]3[C@H](c3ccccc3)[C@]1(C)C(=O)N2 | inconclusive [inhibitor, single point] | 
COc1ccc(C(c2c(NC(=O)c3ccco3)sc(C)c2C)N2CCOCC2)cc1 (stereo unspecified) | inconclusive [inhibitor, single point] | 
COC(=O)C1CCN(C(=O)COC(=O)CNS(=O)(=O)c2ccc(SC)c([N+](=O)[O-])c2)CC1 | inactive | 
Cc1cc(C)c(S(=O)(=O)N2CCN(S(=O)(=O)N3CCCCCC3)CC2)c(C)c1 | inconclusive [inhibitor, single point] | 
CC(=O)Nc1nc2ccccc2n1Cc1ccc(C)cc1 | active: 13 µM | 
Cc1ccc(NC(=O)c2cccc(OCc3c(C)noc3C)c2)cc1 | inactive | 
CC1CCN(C(C)C(=O)Nc2cc(S(=O)(=O)N3CCCCC3)ccc2Cl)CC1 (stereo unspecified) | inconclusive [inhibitor, single point] | 
COc1cc(C(C(=O)NC2CCCC2)N(Cc2ccccc2)C(=O)c2snc(C(N)=O)c2N)ccc1O (stereo unspecified) |  | inconclusive: -32% [inhibitor]
CCO/N=C(\C)c1c(O)c(CC)c(-c2ccccc2)n(-c2ccccc2)c1=O | inactive | 
O=C(CNC1CCCCC1)Nc1ccc([N+](=O)[O-])cc1C(=O)Nc1ccccc1F | inactive | 
CCOc1ccc(Cc2nccc3cc(OCC)c(OCC)cc23)cc1OCC | active: 8.05 µM and active: 5.8 µM | 
CCN1CCCC1CN(Cc1cc2ccc(C)cc2[nH]c1=O)C(=S)Nc1cccc(OC)c1 (stereo unspecified) | active: 29.1 µM | 
O=C(Nc1ccc(S(=O)(=O)NC2=NCCCCC2)cc1)c1ccc(C(F)(F)F)cc1 | inconclusive [inhibitor, single point] | 
CCCc1nnc(SCC(=O)N2CCCC2)n1Cc1ccco1 | inactive | 
Cc1ccc(C(C)C)c(OCC(=O)Nc2cccc(-c3nc4ncccc4o3)c2)c1 | active: 20.6 µM | 
CCOC(=O)C1=C(C)OC(N)=C(C#N)C1c1cc(F)ccc1F (stereo unspecified) | inconclusive [inhibitor, single point] | 
CNC(=O)c1c(NC(=O)c2ccco2)sc2c1CCC2 | inconclusive [inhibitor, single point] | 
O=c1[nH]c2ccc(NCc3ccc(-c4ccccc4F)o3)cc2[nH]1 | active: 18.4 µM | 
COCCCN1C(=O)C(CC(=O)NCc2cccc3ccccc23)CC(C(=O)N(C(C)C)C(C)C)=C1C (stereo unspecified) | inconclusive [inhibitor, single point] | 
Cc1cc(NC(=O)CCC(=O)N(Cc2ccco2)C(C(=O)NC2CCCC2)c2ccccc2C)no1 (stereo unspecified) | active: 23.1 µM | 
O=C(CC1C(=O)NCCN1Cc1ccccc1C(F)(F)F)NCCN1CCOCC1 (stereo unspecified) | inactive | 
CC(C)c1ccc(NC2CCCN(C(=O)c3cccnc3)C2)cc1 (stereo unspecified) | inconclusive [inhibitor, single point] | 
Cc1ccc(N2C(=O)N(CC(=O)Nc3cccc([N+](=O)[O-])c3C)C(=O)C2C)cc1 (stereo unspecified) | inconclusive [inhibitor, partial curve] | 

SMILES | Potency | activity change, negative = growth inhibition
CC(C)NC(=O)CSc1nnc2sc3ccccc3n12 | inactive | 
Cn1cccc1C(=O)N1CCC2(CCCN(Cc3ccccc3)C2)CC1 | inactive | 
O=C(CCSc1nc(-c2ccco2)cc(C(F)(F)F)n1)NCC1CCCO1 (stereo unspecified) | inconclusive [inhibitor, single point] | 
O=C(c1cn(-c2ccccc2)nc1-c1cccnc1)N1CCN(S(=O)(=O)c2cccc(F)c2)CC1 | inconclusive [inhibitor, single point] | 
CCOC(=O)c1cc(-c2ccccc2)n(CCC(=O)N2CCN(c3ccccn3)CC2)c1C | active: 20.6 µM | 
Cc1cc(NC(=O)CSc2nc3c(sc4ccccc43)c(=O)n2CCCN2CCOCC2)n[nH]1 | inconclusive [inhibitor, single point] | 
COc1ccc(CCNCc2c(-c3ccccc3)n(C)c3ccccc23)cc1 | active: 16.4 µM | 
O=C(Cc1ncc(C(F)(F)F)cc1Cl)NNc1cccc(F)n1 | inactive | 
CCCCCn1c(NCc2ccco2)nc2ccccc21 | inconclusive [inhibitor, single point] | 
CNc1snc(C)c1C(=O)OC(C)C(=O)Nc1ccccc1 (stereo unspecified) | inconclusive [inhibitor, partial curve] | 
COc1ccc(CNC(=O)c2ccc3c(c2)N(Cc2ccccc2)C(=O)c2ccccc2S3=O)cc1 (stereo unspecified) | inactive | 
O=S1(=O)CC(N2CCN(c3ncccn3)CC2)CN1Cc1ccc(F)cc1 (stereo unspecified) | inactive | 
O=C(/C=C1\C(=O)Nc2ccccc21)/C=C1\C(=O)Nc2ccccc21 | active: 1.84 µM | 
COc1ccc(Cl)cc1NC(=O)CN1c2ccccc2CC1C (stereo unspecified) | inconclusive [inhibitor, single point] | 
O=C(NC1CC1)C1=C[C@H](c2c[nH]c3ccccc23)C[C@H](OCc2ccc(CO)cc2)O1 | inconclusive [inhibitor, single point] | 
CC1(C)CC(=O)C2=C(C1)OC(N)=C(C#N)C2c1cn(-c2ccccc2)nc1-c1ccccc1 (stereo unspecified) | inconclusive [inhibitor, single point] | 
Cc1cc(F)ccc1NC(=O)C(C(C)C)N1Cc2ccccc2C1=O (stereo unspecified) | inactive | 
COCOc1ccc(-c2cc(=O)c3c(OCOC)cc(OCOC)cc3o2)cc1 | inconclusive [inhibitor, single point] | 
COc1cc(/C=C/C(=O)OCN2C(=O)c3ccccc3C2=O)ccc1OC(F)F | inactive | 
O=C(Nc1nc(=O)c2ccccc2s1)c1ccccc1 | inconclusive [inhibitor, single point] | 
COC(=O)c1ccc(CC2(C)C(=O)Nc3ccc(OC(F)(F)F)cc32)o1 (stereo unspecified) | inactive | 
COc1cc2[nH]c(=S)nc(NCCc3ccc(S(N)(=O)=O)cc3)c2cc1OC | inactive | 
Cc1cc(Nc2ccc(N3CCC(C)CC3)cc2)n2ncnc2n1 | inconclusive [inhibitor, single point] | 
Oc1cccc(C=NNc2ccccn2)c1 | inactive | 

SMILES | Potency | activity change, negative = growth inhibition
Cc1c(Cc2ccccc2)sc(NC(=O)c2ccco2)c1C(N)=O | inconclusive [inhibitor, partial curve] | 
O=C(c1cnn(-c2ccccc2)c1-n1cccc1)N1CCN(C2CCCCC2)CC1 | inconclusive [inhibitor, single point] | 
COc1ccccc1C(=O)NCC(=O)NNC(=O)c1cccs1 | inactive | 
COc1ccc(C(=O)N2CC(=O)Nc3ccc(C)cc3C2c2ccc(F)cc2)c(OC)c1 (stereo unspecified) | inconclusive [inhibitor, single point] | 
CC(=O)Nc1ccc(S(=O)(=O)NC2=NCN(C(C)C)CN2)cc1 | inactive | 
COc1ccccc1C(CNC(=O)c1ccc(C)c(S(=O)(=O)N2CCCCC2)c1)N(C)C (stereo unspecified) | inconclusive [inhibitor, single point] | 
COc1ccc(NC(=O)c2ccc(-c3ccccc3)cc2)cc1S(=O)(=O)N1CCOCC1 | inactive | 
O=C(COC(=O)c1cccc(S(=O)(=O)N2CCc3ccccc32)c1)Nc1ccc(Cl)cn1 | inactive | 
Brc1ccc(/C=N/N2CCN(C3c4ccccc4-c4ccccc43)CC2)s1 | inconclusive [inhibitor, full curve, poor fit] | 
CC(=O)Nc1cc(C(=O)N2CCN(c3ccccc3)CC2C)cc2ncn(CCc3ccccn3)c12 (stereo unspecified) | inactive | 
Cc1[nH]c2ccc(F)cc2c1CCN(Cc1ccncc1)C(=S)Nc1ccccc1 | inactive | 
Cc1ccc(Cl)cc1N1CCN(C(=O)Cc2c(C(=O)O)c(C)cn2C)CC1 | inactive | 
COC(=O)[C@@]12C[C@@H](CC(=O)N3CCN(C(=O)C4CC4)CC3)C(=O)N(CCc3ccc(OC)c(OC)c3)C1=CCC(C)(C)C2 | inactive | 
Cc1ccccc1-n1c(SCC(=O)c2cc(C)n(C)c2C)nnc1-c1ccncc1 | inconclusive [inhibitor, single point] | 
CCc1ccc(NC(=O)CNC(=O)[C@@H]2Cc3ccccc3CN2C(=O)OC(C)(C)C)cc1 | inconclusive [inhibitor, single point] | 
COc1ccccc1CNc1ncnc2sc(C(=O)N(C)C(C)C)c(C)c12 | inconclusive [inhibitor, partial curve, poor fit] | 
CC(C)(C)[C@H]1COC(=O)[C@@H](NC(=O)OCC2c3ccccc3-c3ccccc32)C/C=C\C[C@@H](CC(=O)N[C@@H](CO)Cc2ccccc2)C(=O)N1 | active: 6.51 µM | 
CCCNC(=O)N1CCC(Cc2ccccc2)CC1 | inconclusive [inhibitor, single point] | 
CCN(CC)C(=O)c1cc(S(=O)(=O)N2CCCCC2)c[nH]1 | inconclusive [inhibitor, single point] | 
CCC(C)c1ccc(NC(=O)COc2c(F)c(F)c(C(F)(F)F)c(F)c2F)cc1 (stereo unspecified) | inconclusive [inhibitor, single point] | 
CCOC(=O)CCCCC(=O)c1[nH]c(=O)[nH]c1CSCCO | inactive | 
CCCCC(CC)C(=O)NCc1ccc(F)cc1 (stereo unspecified) | inconclusive [inhibitor, single point] | 
O=C1OCCN1CC(=O)N1CCc2c([nH]c3ccccc23)C1c1ccccn1 (stereo unspecified) | inactive | 

Source: PubChem BioAssay AID686978 (National Center for Advancing Translational Sciences (NCATS), 2013)
